Experimental data: PubChem BioAssay AID1508642 (National Center for Advancing Translational Sciences (NCATS), 2021)
Hit rate of the full screen: of about 43,000 compounds, about 200 (0.47%) were called active. Inconclusive means that the source gave no clear call. Such entries were picked first, then a sample of the others. Calls follow the shape of the dose curve; as a rule, active = well fitted cell-killing curve with a large enough effect; inconclusive = small, poorly fitted or top-dose-only effect, or effect the other way; inactive = flat fitted curve, though single readings scatter. A potency beside an inconclusive call is a rough fit, not a confirmed value.

Test: Cell viability qHTS assay in S16 Pmp22-F2sN cells; also: nearly all actives have a fitted effect of over 65% in size
Conditions: S16 Pmp22-F2sN Schwann cells (luciferase reporters placed in the Pmp22 gene) viability, CellTiter-Glo, 24 h; activity change, negative = cytotoxicity: at 57.5 µM (top of the series)
Summary of the method: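 Luminescence from CellTiter-Glo, read by CCD camera after a 15 min room-temperature incubation, served as the viability signal. Reporter Schwann cells (S16 Pmp22-F2sN) had been treated with pin-transferred compounds for 24 h at 37C.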
% is scaled to controls: 0 for no effect and ±100 for the full control effect; potency is read from the fitted curve at half-maximal effect; tags tell the direction and shape of the fitted curve.

| SMILES | activity change, negative = cytotoxicity | Potency |
| --- | --- | --- |
| COc1ccccc1CNC(=O)CCCn1c(=O)c2cccn2c2ccccc21 | inactive: -4.39% |  |
| CCN(C(=O)CSc1nc(-c2ccccc2)no1)c1cccc(C)c1 | inactive: -8.5% |  |
| COc1cccc(CNc2ncnc3c2nnn3C)c1 |  | inconclusive: 17.8 µM [cytotoxic, partial curve, poor fit] |
| O=C(C1CCN(S(=O)(=O)c2ccc(Br)s2)CC1)N1CCN(c2ccc(F)cc2)CC1 |  | inconclusive: 20 µM [cytotoxic, partial curve, poor fit] |
| CCOCC(=O)Nc1ccc(-c2cn3c(C)csc3n2)cc1 | inactive: 1.28% |  |
| Cc1ccc2c(c1)cc(C(=O)NCc1ccc(F)cc1)n2C |  | inconclusive: 39.8 µM [cytotoxic, single point] |
| CCCCOc1ccc(C(=O)NCCS(=O)(=O)N2CCN(c3ccccc3OC)CC2)cc1 |  | inconclusive: 28.2 µM [cytotoxic, single point] |
| CN(C)c1ccc(C(CNC(=O)c2ccccc2Cl)N2CCc3ccccc32)cc1 (stereo not drawn) | inactive: -5.2% |  |
| CC(=O)Nc1ccc(NC(=O)c2ccc3c(c2)CCN3S(=O)(=O)c2ccc(Cl)cc2)cc1 |  | inconclusive: 39.8 µM [cytotoxic, partial curve, poor fit] |
| COc1ccc(-c2c(C)c3ccc(O)c(CN4CCCCC4C)c3oc2=O)cc1OC (stereo not drawn) |  | inconclusive: 44.7 µM [cytotoxic, partial curve, poor fit] |
| CCSc1ncc(Cl)c(C(=O)Nc2ccc(S(=O)(=O)N3CCCCC3CC)cc2)n1 (stereo not drawn) |  | inconclusive: 15.8 µM [cytotoxic, partial curve, poor fit] |
| Cc1ccc(C(=O)NCCSc2c[nH]c3ccccc23)cc1C |  | inconclusive: 2.82 µM [cytotoxic, partial curve, poor fit] |
| CCOc1ccc(N(CC)C(=O)c2cc3c(s2)-c2ccc(Cl)cc2SC3)cc1 | inactive: 11.2% |  |
| CCOc1ccc(S(=O)(=O)N(C(C)=O)c2ccc3oc(C)c(C(=O)OC)c3c2)cc1 |  | inconclusive: 6.31 µM [cytotoxic, partial curve] |
| CC(C)Oc1ccc(CNS(=O)(=O)c2csc(C(N)=O)c2)cc1 |  | inconclusive: 35.5 µM [rising, single point] |
| CCCN(C(=O)Cn1cnc2sc(C)c(S(=O)(=O)N3CCN(c4ncccn4)CC3)c2c1=O)c1cccc(C)c1 |  | inconclusive: 39.8 µM [rising, single point] |
| Cc1oc(-c2ccccc2Cl)nc1CS(=O)(=O)CC(=O)NC(C)CCc1ccccc1 (stereo not drawn) |  | inconclusive: 39.8 µM [cytotoxic, single point] |
| CCOC(=O)c1ccc(NC(=O)c2nsc3ccccc23)cc1 |  | inconclusive: 31.6 µM [cytotoxic, partial curve, poor fit] |
| CC(=O)Nc1cccc(NC(=O)Cc2csc(COc3cccc(C)c3)n2)c1 |  | inconclusive: 39.8 µM [cytotoxic, single point] |

| SMILES | activity change, negative = cytotoxicity | Potency |
| --- | --- | --- |
| O=C(NCCN1CCCCC1)c1ccc(Cn2c(SCc3ccc(F)cc3)nc3cccnc32)cc1 |  | inconclusive: 39.8 µM [cytotoxic, single point] |
| CC(=O)N1c2ccc(S(=O)(=O)NCC3CCC(C(=O)Nc4cc(C)cc(C)c4)CC3)cc2CC1C (stereo not drawn) |  | inconclusive: 14.1 µM [cytotoxic, partial curve] |
| COc1ccc(-c2nc3sc(CCNS(=O)(=O)c4c(C)cc(C)cc4C)c(C)n3n2)cc1 |  | inconclusive: 28.2 µM [cytotoxic, single point] |
| CCc1cccc(NC(=O)C(Cc2ccccc2)NS(=O)(=O)c2ccc3c(c2)c(=O)n(C)c(=O)n3C)c1 (stereo not drawn) |  | inconclusive: 4.47 µM [rising, full curve, poor fit] |
| CC(C)c1ccc(NC(=O)CN2C(=O)CCc3cc(S(=O)(=O)N4CCOCC4)ccc32)cc1 |  | inconclusive: 8.91 µM [cytotoxic, partial curve] |
| CCC1=C(c2ccc(C)cc2)S(=O)(=O)N=C1N1CCC(C(=O)NCc2ccc(C)cc2)CC1 |  | inconclusive: 31.6 µM [cytotoxic, single point] |
| Cc1ccc(C(=O)/C=C/c2cn(CC(O)CN3CCCCCC3)c3ccccc23)cc1 (stereo not drawn) |  | inconclusive: 39.8 µM [cytotoxic, single point] |
| CCCSCCCNC(=O)CN1C(=O)CCn2nc(-c3cn(C)c4ccccc34)cc21 | inactive: 19.8% |  |
| Cc1ccc(Cn2c(CN3CCC(C(=O)NCC(C)c4ccccc4)CC3)cc3ccccc32)cc1 (stereo not drawn) |  | inconclusive: 28.2 µM [cytotoxic, single point] |
| Cc1ccc(Cl)cc1N1CCN(S(=O)(=O)c2ccc(-c3cnc(C4CC4)o3)cc2)CC1 |  | inconclusive: 39.8 µM [cytotoxic, single point] |
| CCOC(=O)Cc1ccc(NC(=O)N(C(C)C)C2CCN(C(C)=O)CC2)cc1 |  | inconclusive: 0.158 µM [rising, full curve, poor fit] |
| CC(=O)N1c2c(cc(Br)cc2S(=O)(=O)Nc2ccc(OC(F)(F)F)cc2)CC1C (stereo not drawn) | inactive: -24.4% |  |
| O=C(NCc1ccc(Cl)cc1)c1ccc2oc(=O)n(Cc3ccccc3)c2c1 |  | inconclusive: 39.8 µM [cytotoxic, single point] |
| COC(=O)c1c(-c2ccc(Cl)cc2)noc1N1CCN(c2cccc(C)c2C)CC1 |  | inconclusive: 31.6 µM [cytotoxic, single point] |
| COC(=O)c1c(SC)nc2ccccc2c1OCc1ccc(C)cc1 |  | inconclusive: 28.2 µM [rising, partial curve] |
| CCOc1ccc(C2=C(C(=O)CC)Sc3nncn3N2C(=O)CC)cc1 |  | inconclusive: 28.2 µM [cytotoxic, single point] |
| CCn1ccc2cc(S(=O)(=O)N3CCC(C(=O)NCc4cccc(Cl)c4)CC3)ccc21 |  | inconclusive: 17.8 µM [cytotoxic, partial curve, poor fit] |
| O=C(Cn1ncn2nc(-c3cccs3)cc2c1=O)NCc1ccc(Cl)cc1 |  | inconclusive: 39.8 µM [cytotoxic, single point] |
| Cc1oc(-c2cccc(Cl)c2)nc1CN1CCCC(C(=O)NCCc2ccc(Cl)cc2)C1 (stereo not drawn) |  | inconclusive: 39.8 µM [cytotoxic, single point] |
